# Results taken from PubChem BioAssay AID463173 (ICCB-Longwood Screening Facility, Harvard Medical School, 2010).
# Screen size: about 52,000 compounds; about 4,300 (8.3%) were called active. Rule as the data show it: active = survival mostly below about 52% (no sharp cut-off); inactive = mostly above about 56%. The list shows a part of the results.
# System: DeltatarO mutant
# Experiment: growth inhibition of S. aureus wild type versus tarO mutant, primary screen, teichoic acid synthesis inhibitors, RN4220, OD600 (AID 463173)
# Conditions: OD600, 18 h, hits give low values, screened at 18.75 µg/mL (by protocol)
row,SMILES,survival
1,COc1ccc2c(c1)c(CC(=O)Nc1cccc(F)c1C)c(C)n2C(=O)c1ccc(Cl)cc1,inactive: 126%
2,O=C(Nc1ccc(F)c(F)c1)c1cc(S(=O)(=O)N2CCc3ccccc32)ccc1F,inactive: 81%
3,COc1cccc(-n2ccn(CC(=O)Nc3ccccc3F)c(=O)c2=O)c1,inactive: 78%
4,COC(=O)c1ccccc1NC(=O)COCc1cc(-c2cccs2)on1,inactive: 98%
5,COc1ccc(-c2cc(C(=O)Nc3cccc(C(C)=O)c3)no2)cc1OC,inactive: 67%
6,Nc1nonc1C(=O)N1CCCC1,inactive: 98%
7,CCn1c(=O)n(-c2ccc(F)c(Cl)c2)c(=O)c2sc3ccccc3c21,inactive: 96%
8,Cc1ccc(CN(C(=O)c2ccc(F)cc2)c2ccccn2)o1,inactive: 66%
9,Cc1ccc(CNc2nc3c(c(=O)n(C)c(=O)n3C)n2Cc2ccc(Cl)cc2)cc1,inactive: 54%
10,CCOc1ccc2nc(Cl)c(CN(Cc3ccco3)C(=O)N(C)C)cc2c1,inactive: 59%
11,CCOC(=O)c1[nH]c2ccccc2c1NC(=O)c1cc(OC)cc(OC)c1,active: 48%
12,COc1ccc(N2C(N)=C(C#N)C(c3ccc(O)c(OC)c3)C3=C2CCCC3=O)cc1 (centres undefined),inactive: 95%
13,COc1cccc(-c2ccnc3c(-c4ccccc4)c(C)nn23)c1,inactive: 51%
14,CCOc1ccc(NC(=O)N2CCC(CN3CCC(C)CC3)CC2)cc1,inactive: 117%
15,Cc1cccc(N2CCN(C(=O)COCc3cc(-c4ccc5c(c4)OCO5)on3)CC2)c1C,inactive: 101%
16,Cc1ccccc1-c1nc2c3c(-c4ccccc4)c(-c4ccccc4)oc3ncn2n1,inactive: 58%
17,CCOc1ccc2nc(N3CCCC(C(=O)NCCc4ccc(Cl)cc4)C3)sc2c1 (centres undefined),active: 48%
18,CCOC(=O)c1c(NC(=O)Cc2coc3ccc(CC)cc23)sc2c1CCC2,inactive: 82%
19,Cc1cccc(N2CCN(c3ccc4cc(S(=O)(=O)N5CCC(C)CC5)ccc4n3)CC2)c1C,inactive: 85%
20,COc1ccccc1NC(=O)N1CCN(c2ccc3nnc(-c4ccc(F)cc4)n3n2)CC1,inactive: 93%
21,CCOc1ccc(NC(=O)Cn2nc(Cc3cccnc3)c3ccccc3c2=O)cc1,inactive: 84%
22,COc1ccc(N2CCN(CCCNC(=O)c3c(C)nn(-c4ccc(F)cc4)c3-n3cccc3)CC2)cc1,inactive: 71%
23,CCc1ccc(NC(=O)Cn2nnc(-c3ccccc3N)n2)cc1,inactive: 62%

row,SMILES,survival
1,COc1ccc(S(=O)(=O)N(CC(=O)NC(C)c2ccccc2)c2ccc(C)cc2)cc1OC (centres undefined),inactive: 71%
2,COc1ccccc1N1CCN(C(=O)c2cc3c(=O)n(Cc4cccs4)ccc3nc2C)CC1,inactive: 74%
3,O=C(CCC(=O)NC1CCN(Cc2ccccc2)CC1)NCc1ccco1,inactive: 73%
4,CCOC(=O)N1CCc2c(sc3c2c(=O)n(-c2ccc(CC)cc2)c(=O)n3Cc2ccc(F)cc2Cl)C1,inactive: 72%
5,CCOc1ccccc1Nc1sc(C(=O)c2ccccc2)c(N)c1C(=O)Nc1ccc(F)cc1,inactive: 85%
6,Cc1ccc(Cn2ccnc2SCC(=O)NCc2ccccc2)cc1,inactive: 89%
7,Cc1ccc(NC(=O)c2ccc3c(c2)NC(=O)c2ccccc2S3)c(Cl)c1,inactive: 89%
8,Cc1nn(CC(=O)NC2CC2)c(=O)c2cc3cc(F)ccc3n12,inactive: 81%
9,CSc1ccc(CCNC(=O)Cn2nc(C)n3c(cc4sccc43)c2=O)cc1,inactive: 88%
10,Cc1nc(-c2ccc(Cl)cc2)sc1CCNC(=O)C(=O)Nc1ccc2c(c1)OCO2,inactive: 71%
11,COc1ccc(CNC(=O)C(=O)NCC(c2ccco2)S(=O)(=O)c2ccc(Cl)cc2)cc1 (centres undefined),inactive: 128%
12,Cn1c(=O)c2c(nc(SCC(=O)Nc3ccccc3F)n2Cc2ccccc2F)n(C)c1=O,inactive: 65%
13,CCOC(=O)c1cccc(NC(=O)Cn2ncc3c(=O)oc4ccccc4c32)c1,inactive: 74%
14,CC1(C)Oc2ccc(NC(=O)c3ccco3)cc2O1,inactive: 97%
15,CCOC(=O)c1c(C)oc2ncnc(Nc3cccc(C(F)(F)F)c3)c12,inactive: 105%
16,CCc1ccc(NC(=O)CC(NCc2cccnc2)C(=O)O)cc1 (centres undefined),inactive: 68%
17,O=c1oc2ccccc2cc1-c1cn2cc(Cc3ccc(F)cc3)sc2n1,inactive: 128%
18,Cc1ccc(OCC(=O)Nc2ccc(OCc3cc(=O)n4c(C)csc4n3)cc2)cc1C,inactive: 124%
19,COc1cc2nc(C3CCC3)n(NC(=O)c3ccco3)c(=O)c2cc1OC,inactive: 82%
20,CSc1nn(Cc2ccc(F)cc2)c(N(C(C)=O)C(C)=O)c1S(=O)(=O)c1ccccc1,inactive: 74%
21,CCc1cccc(CC)c1NC(=O)CN(C)S(=O)(=O)c1ccc2c(c1)n(C)c(=O)c(=O)n2C,inactive: 80%
22,CC(=O)Nc1c(C(=O)c2ccc(F)cc2)oc2ccccc12,inactive: 106%
23,COc1cccc(CNC(=O)C2CCCN(c3nnc(-n4c(C)ccc4C)s3)C2)c1OC (centres undefined),inactive: 84%

row,SMILES,survival
1,CCCCN(C(=O)c1cccs1)c1nnc(-c2cc(OC)cc(OC)c2)s1,inactive: 68%
2,COc1cccc(NC(=O)Cn2c(=O)oc3cc(S(=O)(=O)N4CCCCC4)ccc32)c1,inactive: 112%
3,Cc1ccc(C(=O)c2oc3ccccc3c2NC(=O)COc2ccc(Cl)c(C)c2)cc1,inactive: 90%
4,COc1cc(C2CC(=O)Nc3cc4c(cc32)OCO4)cc(OC)c1O (centres undefined),inactive: 92%
5,Cc1c(C)n(Cc2ccc(Cl)cc2)c2ccc(C(=O)N3CCN(c4ccccc4F)CC3)cc12,inactive: 81%
6,COc1ccc(OC)c(CCNC(=O)c2nc(-c3ccc(Cl)cc3)n3c2CCCCC3)c1,inactive: 78%
7,O=S(=O)(NC1CCCC1)c1cccc(S(=O)(=O)N2CCCCC2)c1,inactive: 85%
8,CC(C)COc1ccc(C(=O)N2CCCCC2CCN2CCOCC2)cc1 (centres undefined),inactive: 82%
9,COc1ccc(S(=O)(=O)c2c(Nc3cccc(Cl)c3)sc(C(=O)c3ccccc3)c2N)cc1,inactive: 66%
10,COc1cccc2cc(-c3nc4sc5c(c4c(=O)[nH]3)CCC(C(C)(C)C)C5)c(=O)oc12 (centres undefined),inactive: 87%
11,COc1ccc(/C=C/c2nc(C#N)c(N3CCCCC3)o2)cc1OC,inactive: 76%
12,Cc1ccc2c(=O)cc(C(=O)Nc3c(C)cccc3C)oc2c1,active: 44%
13,CCc1ccc(NC(=O)Cn2ncn3c(cc4ccccc43)c2=O)cc1,inactive: 118%
14,CCCCN(Cc1cc2cc(C)ccc2[nH]c1=O)C(=O)c1cccc(Cl)c1,inactive: 72%
15,Cc1cc2c(cc1S(=O)(=O)NCc1ccc(F)cc1)OCCN2C,inactive: 85%
16,O=C(Nc1ccc(OC(F)(F)F)cc1)c1cc(-c2ccc(Cl)cc2)on1,inactive: 82%
17,Cc1nc2c3ccccc3nc(NNC(=O)CCC(=O)N3CCN(c4ccc(F)cc4)CC3)n2n1,inactive: 91%
18,Nc1ccc2nc(CO)[nH]c2c1,inactive: 98%
19,CC(=O)N1CCCc2ccc(NC(=O)c3ccc(OC(C)C)cc3)cc21,inactive: 68%
20,Cc1ccc2nc(COc3ccccc3NC(=O)Nc3ccc(F)c(Cl)c3)cc(=O)n2c1,inactive: 94%
21,CCSc1nc(-c2ccc(OC)cc2)nc2c1Cc1c(CO)cnc(C)c1O2,inactive: 83%
22,CCC(=O)N1CCc2cc(Br)cc(S(=O)(=O)N3CCCC(C(=O)NCc4ccc(C)cc4)C3)c21 (centres undefined),inactive: 94%
23,Cc1occc1C(=O)NC(C)C12CC3CC(CC(C3)C1)C2 (centres undefined),inactive: 96%

row,SMILES,survival
1,O=C(Cn1ncc2c3ccccc3n(Cc3ccccc3)c2c1=O)NCCc1ccc(Cl)cc1,inactive: 84%
2,COc1ccc(S(=O)(=O)N2CCC(c3nc4ccccc4s3)CC2)cc1OC,inactive: 86%
3,COc1cccc(NC(=O)Cn2nc(N3CCN(c4ccccc4)CC3)ccc2=O)c1,inactive: 77%
4,Cc1ccc(Cl)cc1-n1ncc2c(NCCc3ccccc3)ncnc21,inactive: 60%
5,CCCNC(=O)c1ccc2c(c1)N=C(CCC)c1ccccc1S2,inactive: 50%
6,Cc1cccc(CSc2cn(CC(=O)N3CCOCC3)c3ccccc23)c1,inactive: 81%
7,O=C(Cn1nc2c(cc1=O)CCCC2)NCc1ccc(Cl)cc1,inactive: 115%
8,CCCn1c(=N)c(C(=O)NCC2CCCO2)cc2c(=O)n3cc(C)ccc3nc21 (centres undefined),inactive: 152%
9,Cc1cccc(-c2nc(SCc3cc(=O)c4c(C)cc(C)cc4[nH]3)n[nH]2)c1,inactive: 78%
10,COCCN(CCOC)S(=O)(=O)c1ccc(C(=O)Nc2sc3c(c2C(N)=O)CCCC3)cc1,inactive: 129%
11,CCC(=O)N1CCc2cc(Br)cc(S(=O)(=O)N3CCCC(C(=O)Nc4ccc(C)c(F)c4)C3)c21 (centres undefined),inactive: 113%
12,Cc1nn(C(C)C(=O)NCc2ccc(OC(C)C)cc2)c(=O)c2c1sc1ccccc12 (centres undefined),inactive: 90%
13,Cc1ccc(C(=O)N(Cc2ccc(N(C)C)cc2)CC2CCCO2)cc1 (centres undefined),inactive: 50%
14,COc1ccccc1NC(=O)c1c(-c2ccc(C)cc2)nnc2ccccc12,inactive: 105%
15,Cc1ccc2ccc3cc(C(=O)N4CCN(c5ccccc5F)CC4)nc3c2[nH]1,inactive: 88%
16,CCCCNC(=O)CCC(=O)NNc1nc2ccccc2c2nc(C)nn12,inactive: 89%
17,CCN(C(=O)CN1C(=O)c2ccccc2Sc2ccc(C(=O)OC)cc21)c1cccc(C)c1,inactive: 120%
18,CCC(=O)N1CCc2cc(S(=O)(=O)NC(Cc3ccccc3)C(=O)NCc3ccccc3)ccc21 (centres undefined),inactive: 65%
19,Cc1ccc(OCC(=O)Nc2ccc(OCc3cc(=O)n4ccsc4n3)cc2)cc1C,inactive: 138%
20,CCCCNc1nc2c(S(=O)(=O)c3ccc(Br)cc3)nnn2c2ccsc12,inactive: 74%
